From patent US20190367516A1 (Bayer Pharma Aktiengesellschaft, priority 2015, published 2019)

These compounds were tested against T1, human M2 receptor (Homo sapiens, UniProt P08172). Settings: read-out: Efficiency, M2-GIRK1/4 activation test; boosting of the acetylcholine effect at an EC20 acetylcholine concentration.
T1 sequence (P08172 1-466): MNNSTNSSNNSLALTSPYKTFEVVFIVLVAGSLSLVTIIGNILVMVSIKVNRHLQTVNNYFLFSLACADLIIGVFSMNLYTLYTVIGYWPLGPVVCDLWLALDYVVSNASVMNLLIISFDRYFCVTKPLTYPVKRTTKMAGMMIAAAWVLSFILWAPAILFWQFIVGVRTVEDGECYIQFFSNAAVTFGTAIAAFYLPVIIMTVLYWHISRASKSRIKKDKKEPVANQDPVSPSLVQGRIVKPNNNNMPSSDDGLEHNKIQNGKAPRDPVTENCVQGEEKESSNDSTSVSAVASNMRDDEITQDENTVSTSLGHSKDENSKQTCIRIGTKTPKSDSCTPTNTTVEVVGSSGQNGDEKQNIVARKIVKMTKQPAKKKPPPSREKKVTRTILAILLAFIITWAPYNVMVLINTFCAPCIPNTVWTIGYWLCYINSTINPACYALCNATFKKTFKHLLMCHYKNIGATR

In order of rising Emax:
1. CN(CC(=O)O)c1ccc2c(=O)c(C(=O)N[C@@H](C3CC3)C(F)(F)F)cn(-c3c(F)cc(F)cc3F)c2n1 [Example 385, N-[6-{[(1S)-1-Cyclopropyl-2,2,2-trifluoroethyl]carbamoyl}-5-oxo-8-(2,4,6-trifluorophenyl)-5,8-dihydro-1,8-naphthyridin-2-yl]-N-methylglycine]  72.5%
2. C[C@@H](O)CNc1ccc2c(=O)c(C(=O)N[C@@H](C3CC3)C(F)(F)F)cn(-c3c(F)cc(F)cc3F)c2n1 [Example 378, N-[(1S)-1-Cyclopropyl-2,2,2-trifluoroethyl]-7-{[(2R)-2-hydroxypropyl]amino}-4-oxo-1-(2,4,6-trifluorophenyl)-1,4-dihydro-1,8-naphthyridine-3-carboxamide]  76.8%
3. CC(C)(CC(F)(F)F)NC(=O)c1cn(-c2c(F)cc(F)cc2F)c2nc(N3CCCN(CCO)C3=O)ccc2c1=O [Example 383, 7-[3-(2-Hydroxyethyl)-2-oxotetrahydropyrimidin-1(2H)-yl]-4-oxo-N-(4,4,4-trifluoro-2-methylbutan-2-yl)-1-(2,4,6-trifluorophenyl)-1,4-dihydro-1,8-naphthyridine-3-carboxamide]  85.5%
4. C[C@@H]1CN(c2ccc3c(=O)c(C(=O)N[C@@H](C)COC(F)(F)F)cn(-c4c(F)cc(F)cc4F)c3n2)C(=O)N1 [Example 381, 7-[(4R)-4-Methyl-2-oxoimidazolidin-1-yl]-4-oxo-N-[(2S)-1-(trifluoromethoxy)propan-2-yl]-1-(2,4,6-trifluorophenyl)-1,4-dihydro-1,8-naphthyridine-3-carboxamide]  87%
5. N#CN1CCCN(c2ccc3c(=O)c(C(=O)N[C@@H](C4CC4)C(F)(F)F)cn(-c4c(F)cc(F)cc4F)c3n2)C1=O [Example 380, 7-(3-Cyano-2-oxotetrahydropyrimidin-1(2H)-yl)-N-[(1S)-1-cyclopropyl-2,2,2-trifluoroethyl]-4-oxo-1-(2,4,6-trifluorophenyl)-1,4-dihydro-1,8-naphthyridine-3-carboxamide]  88%
6. CN(CCO)c1ccc2c(=O)c(C(=O)N[C@@H](C3CC3)C(F)(F)F)cn(-c3c(F)cc(F)cc3F)c2n1 [Example 384, N-[(1S)-1-Cyclopropyl-2,2,2-trifluoroethyl]-7-[(2-hydroxyethyl)(methyl)amino]-4-oxo-1-(2,4,6-trifluorophenyl)-1,4-dihydro-1,8-naphthyridine-3-carboxamide]  88%
7. C[C@@H]1C[C@](C)(O)CN1c1ccc2c(=O)c(C(=O)N[C@@H](C)C(F)(F)F)cn(-c3c(F)cc(F)cc3Cl)c2n1 [Example 390, 1-(2-Chloro-4,6-difluorophenyl)-7-[(2R,4S)-4-hydroxy-2,4-dimethylpyrrolidin-1-yl]-4-oxo-N-[(2S)-1,1,1-trifluoropropan-2-yl]-1,4-dihydro-1,8-naphthyridine-3-carboxamide]  88%
8. CC(C)Nc1ccc2c(=O)c(C(=O)NC34CCC(CC3)CC4)cn(-c3ccc(F)cc3F)c2n1 [compound 159]  88.9%
9. CC(C)(NC(=O)c1cn(-c2c(F)cc(F)cc2F)c2nc(N3CCCN(CCO)C3=O)ccc2c1=O)C(F)F [Example 382, N-(1,1-Difluoro-2-methylpropan-2-yl)-7-[3-(2-hydroxyethyl)-2-oxotetrahydropyrimidin-1(2H)-yl]-4-oxo-1-(2,4,6-trifluorophenyl)-1,4-dihydro-1,8-naphthyridine-3-carboxamide]  91%
10. CC(C)(NC(=O)c1cn(-c2c(F)cc(F)cc2F)c2nc(N3C[C@@H](O)[C@H](O)C3)ccc2c1=O)C1CC1 [Example 379, N-(2-Cyclopropylpropan-2-yl)-7-[(3R,4R)-3,4-dihydroxypyrrolidin-1-yl]-4-oxo-1-(2,4,6-trifluorophenyl)-1,4-dihydro-1,8-naphthyridine-3-carboxamide]  95.5%
11. O=C(N[C@H](C1CC1)C(F)(F)F)c1cn(-c2c(Cl)cc(F)cc2Cl)c2nc(N3C[C@@H](O)CC3=O)ccc2c1=O [Example 387, N-[(1R)-1-Cyclopropyl-2,2,2-trifluoroethyl]-1-(2,6-dichloro-4-fluorophenyl)-7-[(4S)-4-hydroxy-2-oxopyrrolidin-1-yl]-4-oxo-1,4-dihydro-1,8-naphthyridine-3-carboxamide]  95.5%
12. CC(C)(CC(F)(F)F)NC(=O)c1cn(-c2c(F)cc(F)cc2Cl)c2nc(N3C[C@@H](O)[C@H](O)C3)ccc2c1=O [Example 391, 1-(2-Chloro-4,6-difluorophenyl)-7-[(3R,4R)-3,4-dihydroxypyrrolidin-1-yl]-4-oxo-N-(4,4,4-trifluoro-2-methylbutan-2-yl)-1,4-dihydro-1,8-naphthyridine-3-carboxamide]  97%
13. CC(C)(NC(=O)c1cn(-c2ccc(F)cc2F)c2nc(N3CCCS3(=O)=O)ccc2c1=O)c1c(F)cccc1F [compound 185]  97.6%
14. O=C(N[C@H](C1CC1)C(F)(F)F)c1cn(-c2c(F)cc(F)cc2F)c2nc(N3C[C@@H](O)CC3=O)ccc2c1=O [Example 386, N-[(1R)-1-Cyclopropyl-2,2,2-trifluoroethyl]-7-[(4S)-4-hydroxy-2-oxopyrrolidin-1-yl]-4-oxo-1-(2,4,6-trifluorophenyl)-1,4-dihydro-1,8-naphthyridine-3-carboxamide]  97.8%
15. O=C(NCc1c(Cl)cccc1Cl)c1cn(-c2ccc(F)cc2F)c2nc(N3CC(O)CC3=O)ccc2c1=O (centres unmarked) [compound 183]  98%
16. CC[C@H](NC(=O)c1cn(-c2c(F)cc(F)cc2F)c2nc(N3CCN/C3=N\C(=O)OC)ccc2c1=O)C(F)(F)F [Example 377, Methyl {1-[5-oxo-6-{[(2S)-1,1,1-trifluorobutan-2-yl]carbamoyl}-8-(2,4,6-trifluorophenyl)-5,8-dihydro-1,8-naphthyridin-2-yl]imidazolidin-2-ylidene}carbamate]  99%
17. CC(C)(CC(F)(F)F)NC(=O)c1cn(-c2c(F)cc(F)cc2Cl)c2nc(N3CCNC3=O)ccc2c1=O [Example 394, 1-(2-Chloro-4,6-difluorophenyl)-4-oxo-7-(2-oxoimidazolidin-1-yl)-N-(4,4,4-trifluoro-2-methylbutan-2-yl)-1,4-dihydro-1,8-naphthyridine-3-carboxamide]  100%
